According to PubChem BioAssay AID485344 (National Center for Advancing Translational Sciences (NCATS), 2010):
Values joined by “and” are separate entries in the source; they are usually repeats but may differ in a detail not shown here. Identical values can stand only once. Out of some 340,000 compounds screened, about 6,900 (2%) were called active. Rule as the data show it: active = inhibition above about 30%; inactive = below that, where a call was filed. This is a selection; strong and weak results do not stand in their true shares. Entries without a call were filed so in the source. Some compounds were tested as several samples or in several runs, with calls that do not always agree.

These compounds were tested against D(2) dopamine receptor (Homo sapiens) (UniProt P14416) (assay: HTS Assay for Allosteric Antagonists of the Human D2 Dopamine Receptor: Primary Screen for Antagonists). Conditions: HEK293 TREx D2 cells, calcium flux, dopamine EC80; at 10 µM; stronger effect = higher value.
Chain of UniProt P14416 (P14416 whole entry, looked up): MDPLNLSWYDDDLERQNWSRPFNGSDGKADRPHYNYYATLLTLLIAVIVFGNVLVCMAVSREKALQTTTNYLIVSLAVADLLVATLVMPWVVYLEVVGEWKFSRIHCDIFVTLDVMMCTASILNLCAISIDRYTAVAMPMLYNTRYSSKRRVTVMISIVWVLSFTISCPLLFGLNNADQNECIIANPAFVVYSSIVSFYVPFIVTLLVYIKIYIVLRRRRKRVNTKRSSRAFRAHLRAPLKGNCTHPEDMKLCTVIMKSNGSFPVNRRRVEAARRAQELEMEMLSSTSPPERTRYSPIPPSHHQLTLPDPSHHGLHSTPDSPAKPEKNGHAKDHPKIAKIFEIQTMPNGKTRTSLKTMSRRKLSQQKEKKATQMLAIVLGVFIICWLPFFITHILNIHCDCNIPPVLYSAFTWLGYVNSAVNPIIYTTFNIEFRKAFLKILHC
Text: NIH Chemical Genomics Center [NCGC] NIH Molecular Libraries Probe Centers Network [MLPCN] MLPCN Grant: NS064831-01 Assay Submitter (PI): David Sibley Dopamine receptors (DARs) are involved in the etiology and/or therapy of a number of neuropsychiatric and endocrine disorders. For instance, all receptor-based antiparkinsonian drugs work via stimulating the D2 DAR subtype whereas all FDA-approved antipsychotic agents are antagonists of this receptor. […] There are three different types of allosteric modulators that we are seeking, two of which will stimulate or augment receptor signaling, allosteric agonists and potentiators, while the third, allosteric antagonists, will attenuate receptor signaling. The present primary screening assay measures compound antagonism after an EC80 addition of dopamine by tracking calcium flux in a […], inducible Hek293 Trex D2 cell line.
Freshly passaged cells are plated in 1536 well black, clear bottom plates at a density of 4000 cells/well in 3 ul of complete media containing 1x tetracycline inducer. After an overnight incubation at 30 C in 5% CO2, cells are loaded with 2 ul of the no wash Calcium Assay Kit (ABD Bioquest) and incubated at room temperature for 30 to 90 minutes. Agonist read: A 10 cycle (1 second/cycle) baseline measurement is taken and then the FDSS online 1536 pintool delivers 23 nl of compound library (as well as dopamine controls) to the plate. The plate is measured for kinetically at 1 cycle/sec for 180 seconds. Following the 180 second read, 1 ul of an EC80 (negative modulation assay) is delivered by an onboard pipette head. Measurements are taken kinetically for an additional 180 seconds.
Also: 0% is about no effect.

Structure (SMILES) | inhibition
c1ccc(CNCCc2c[nH]c3ccccc23)cc1 | active: 60.5%
Cn1c(O)c(C=Nc2ccc(F)cc2)c(=O)[nH]c1=O | active: 35.3%
O=S1(=O)N(Cc2ccccc2Cl)CCCN1Cc1ccccc1Cl | -2.03%
COc1ccc(NC(=O)CCc2nc(C3=CCN(Cc4cccc(Cl)c4)CC3)no2)c(OC)c1 | 23.6%
O=C(Nc1ccc2c(c1)OCO2)c1cccn(Cc2cccc([N+](=O)[O-])c2)c1=O | -18.2%
CCn1cc(C(=O)O)c(=O)c2ccc(C)nc21 | active: 40.7%
Cc1ccccc1OCC(=O)N1CCN(CCc2ccccn2)CC1 | 13.3%
CC1(C)OC(c2ccccc2)=C/C(=C/C=C2C(=O)NC(=S)NC2=O)O1 | active: 63%
C[C@H]1CCC[C@H](O)CCCCCc2cc(O)cc(O)c2C(=O)O1 | active: 32.4%
COc1cccc(C2SCC(=O)Nc3c2c(C)nn3-c2ccc(C)c(Cl)c2)c1OC (stereo not given) | -16.5%
O=c1c2ccccc2nc(/C=C/c2ccccc2F)n1-c1cccc(O)c1 | -1.84%
COc1ccccc1CN1CCN(Cc2ccc(Cl)cc2)CC1 | active: 76.4%
Cc1cccc(-n2nc(C)c3c2NC(=O)CSC3c2ccccc2Cl)c1 (stereo not given) | -2.37%
Cc1cc(NCCN)nc2ccccc12 | active: 57.8%
CC(C)Cc1nc2cccnc2n1C1CCNCC1 | 6.58%
CCOc1ccc(CN(CCc2ccc3c(c2)OCO3)Cc2ccc(C)cc2)cc1 | -4.3%
Cc1ccc(NC(=O)Cn2cc(C(=O)c3ccccc3)c3ccccc32)c(C)c1 | -2.6%
OC(CCNCCc1c[nH]c2ccccc12)C(F)(F)Cl (stereo not given) | active: 52.7%
COc1ccccc1N1CCN(Cc2ccc(Cl)cc2Cl)CC1 | active: 34.7%
COc1ccc(-n2c(/C=C/c3cccc(F)c3)nc3ccccc3c2=O)cc1Cl | 11.5%
Cc1cccc(CN2C(=O)CN=C(c3ccccc3)c3ccccc32)c1 | -9.61%
CCN1CC=C(c2c[nH]c3ccccc23)CC1 | active: 82.7%
Cc1ccc(-c2cc(-c3ccc(C)cc3)[n+](-c3ccccc3)c(-c3ccc(C)cc3)c2)cc1 | active: 48.9%
CCCCC12CN3CC(C)(CN(C1)C3c1ccccn1)C2=O (stereo not given) | 2.66%
Cc1ccc(-c2nc(CN3C(=O)CN=C(c4ccccc4)c4ccccc43)c(C)o2)cc1 | 9.17%

Structure (SMILES) | inhibition
CCN(CC)C(=O)c1ccc(NC(=O)c2ccc(-c3nn(C)c(=O)c4ccccc34)cc2)cc1 | -5.35%
CN1/C(=C\C=C2C(=O)NC(=S)NC2=O)C(C)(C)c2ccccc21 | active: 30.6%
Cc1ccc(Cn2cccc(C(=O)Nc3ccc4c(c3)OCCO4)c2=O)cc1 | 13%
Clc1cccc(N2CCNCC2)c1Cl | active: 35%
COc1ccccc1C1SCC(=O)Nc2c1c(C)nn2-c1cccc(C)c1 (stereo not given) | 18.4%
CCC1(C)OC(c2ccccc2)=C/C(=C/C=C2C(=O)NC(=O)NC2=O)O1 (stereo not given) | active: 43.3%
Cc1ccc(CN2C3CCCC2CC(NC(=S)NCc2ccccc2)C3)cc1 (stereo not given) | active: 104%
CCCC12CN3CC(C)(CN(C1)C3c1c(C)[nH]c(=O)[nH]c1=O)C2=O (stereo not given) | 12.9%
CCCC1=Nc2cc(C(=O)NCCCN(CC)CC)ccc2Sc2ccccc21 | -6.29%
COc1ccc(Br)cc1C1SCC(=O)Nc2c1c(C)nn2-c1ccccc1C (stereo not given) | 24.3%
Cc1ccc(-c2nn3c(=O)cc(CN4CCN(C(=O)COc5ccc(C)c(C)c5)CC4)nc3s2)cc1 | -2.79%
Cc1ccc(Cn2cccc(C(=O)Nc3cc(C)on3)c2=O)cc1 | -0.476%
Cc1c(C(c2ccc(Br)cc2)c2c(O)c3ccccc3oc2=O)c(=O)n(-c2ccccc2)n1C (stereo not given) | -20.4%
COC(=O)C1=C(c2ccccc2OCc2ccccc2)C[C@@H]2CC[C@H]1N2C(=O)NC1CCN(Cc2ccccc2)CC1 | active: 59.5%
CN(C)c1ccc(NC(=O)c2sc3nc4c(cc3c2N)N2CCC4CC2)cc1 | -3.7%
COc1ccc(OCC(=O)N2CCN(CCc3ccncc3)CC2)cc1 | -0.576%
NNC(N)=O | active: 30.5%
Cc1ccccc1-n1c(/C=C/c2c(C)[nH]c3ccccc23)nc2ccccc2c1=O | -3.33%
CN1CCN(c2nc(N)c(Br)c(Cl)n2)CC1 | active: 68.6%
COc1ccccc1N1CCN(Cc2ccccc2F)CC1 | active: 80.6%
Cc1ccccc1-n1nc(C)c2c1NC(=O)CSC2c1ccc(Cl)cc1 (stereo not given) | 6.67%
Cc1ccc(C(C)C)c(OCC(=O)N2CCN(CCc3ccncc3)CC2)c1 | -14.1%
NCCc1ccc(O)cc1 | active: 46.6%
COCCCn1c(N)c(C(=O)OC(C)COC)c2nc3ccccc3nc21 (stereo not given) | active: 42.5%
O=C1NC(=O)N(c2ccccc2F)C(=O)/C1=C/c1ccc(Sc2nc3ccccc3[nH]2)o1 | active: 44%

Structure (SMILES) | inhibition
Cc1ccc(C(=O)Nc2ccccc2)cc1S(=O)(=O)N1CCCC1 | 7.35%
CC1(C)Cc2c(sc3c2C(=O)NC(c2cccnc2)N3)CO1 (stereo not given) | active: 69.5%
COC(=O)C1C=C2c3cccc4[nH]cc(c34)CC2N(C)C1 (stereo not given) | active: 61.9%
Cc1ccc(CN2C3CCCC2CC(NC(=O)Nc2cccc(F)c2)C3)cc1 (stereo not given) | active: 75%
CCOc1ccc(CN(CCc2ccc3c(c2)OCO3)Cc2ccc(OC)c(Br)c2)cc1 | -10.1%
CCOc1ccc2nc(NC(=O)c3cccn(Cc4ccccc4Cl)c3=O)sc2c1 | 11.4%
Cc1ccccc1CN1C(=O)C(C)N=C(c2ccccc2)c2ccccc21 (stereo not given) | -4.43%
Fc1ccc(C(OCCN2CCCC2)c2ccc(Br)cc2)cc1 (stereo not given) | active: 47%
Cc1ccsc1C(=O)C1CCCN(Cc2cc(C(C)C)n[nH]2)C1 (stereo not given) | active: 80.4%
Cc1ccc(OCC(=O)Nc2ccc(Cl)cc2C(=O)c2ccccc2)cc1C | 1.65%
Clc1ccccc1CN1CCN(c2ccccc2)CC1 | active: 68.2%
O=C(CNC(=O)c1ccc(Cl)cc1)Nc1ccc(Br)cc1C(=O)c1ccccc1 | active: 34.4%
CNC(C)Cc1ccccc1Sc1ccc(O)cc1 (stereo not given) | active: 67.4%
COc1cccc(-c2nn3c(=O)cc(CN4CCN(C(=O)COc5ccccc5C)CC4)nc3s2)c1 | -8.11%
C#CC1(O)CCC2C3CCC4=C/C(=N/OCC(=O)NCC(=O)NC(C(=O)O)C(C)C)CC[C@]4(C)C3CC[C@@]21C (stereo not given in full) | active: 60.4%
CC(C)NC(C)C(=O)c1ccc2ccccc2c1 (stereo not given) | active: 46%
COc1cc(C)c(CN2CC=C(c3ccc(F)cc3)CC2)cc1C | active: 83.9%
Cc1ccc2c(c1)C1CN(C)CCC1N2C(=O)/C(C#N)=C/c1ccc2c(c1)OCO2 (stereo not given) | active: 47.7%
COc1ccccc1N1CCN(Cc2ccc(Br)s2)CC1 | active: 84.9%
Cc1nnc(NC(=O)c2cccn(Cc3cccc(F)c3)c2=O)s1 | -25.8%
CNc1ccc2oc(C[C@H]3O[C@@]4(CC[C@H]3C)O[C@H]([C@H](C)C(=O)c3ccc[nH]3)[C@H](C)C[C@H]4C)nc2c1C(=O)O | active: 62.5%
COc1ccc(CN2CCN(c3ccccc3F)CC2)c(OC)c1 | active: 76.4%
COc1ccc(OCC(=O)N2CCN(Cc3ccc(SC)cc3)CC2)cc1 | -0.996% and active: 45.6%
O=C(c1ccc2c(c1)N(Cc1ccc(F)cc1)C(=O)c1ccccc1S2)N1CCC2(CC1)OCCO2 | -0.267%
Cc1ccccc1-n1c(/C=C/c2ccc(N(C)C)cc2)nc2ccccc2c1=O | -24.9%

Structure (SMILES) | inhibition
Cc1cccc(CN2CCN(c3ccc(Cl)cc3)CC2)c1 | active: 34.3%
Cc1cccc(Cn2cccc(C(=O)Nc3ccc(F)cc3F)c2=O)c1 | -16.1%
Cc1ccnc(-n2c(-c3ccccc3)nc3ccccc3c2=O)c1 | active: 33%
Cc1ccc(OCC(=O)N2CCN(CCc3ccncc3)CC2)cc1 | 5.07%
COc1ccccc1CN1CCN(C(=O)COc2ccccc2)CC1 | active: 33%
Cc1ccc(Cn2cccc(C(=O)Nc3nc4ccc(C)cc4s3)c2=O)cc1 | 16.1%
COc1ccccc1N1CCN(Cc2cnc(-c3ccccc3)[nH]2)CC1 | active: 57.1%
COc1ccc(NC(=O)CN2C(=O)C(C)N=C(c3ccccc3)c3ccccc32)cc1OC (stereo not given) | -1.42%
O=P(CN1CCN(c2ccccc2)CC1)(N1CCCCC1)N1CCCCC1 | active: 36.5%
CCc1ccc(-n2nc(C)c3c2NC(=O)CSC3c2ccccc2C)cc1 (stereo not given) | -1.57%
Cc1ccc(OCC(=O)Nc2ccc(Cl)cc2C(=O)c2ccccc2)c(Br)c1 | -14.4%
COC(=O)C1=C(c2ccc(OCc3ccccc3)cc2)C[C@@H]2CC[C@H]1N2C(=O)NC1CCN(Cc2ccccc2)CC1 | active: 69.8%
CSc1ccc(C(=O)C2CCCN(CCCn3cccn3)C2)cc1 (stereo not given) | active: 35.9%
COc1ccccc1N1CCN(Cc2ccc(Br)cc2)CC1 | active: 93.7%
N#Cc1cc2c(nc1SCC(=O)Nc1cccc(C(F)(F)F)c1)C1CCN2CC1 | -10.1%
COc1ccc(C(c2c(O)c3ccccc3oc2=O)c2c(C)n(C)n(-c3ccccc3)c2=O)cc1 (stereo not given) | active: 93.3% and 3.36%
CCSc1nnc(NC(=O)c2cccn(Cc3ccccc3Cl)c2=O)s1 | 1.93%
CCOc1ccccc1NC(=O)c1cccn(Cc2ccccc2C)c1=O | 22.5%
CC(=O)c1cccc(NC(=O)c2cccn(Cc3cccc(C)c3)c2=O)c1 | 22.2%
COc1ccc(F)cc1C(=O)C1CCCN(Cc2ccc(O)cc2)C1 (stereo not given) | active: 71.7%
Cc1nc2ccccc2c(=O)n1-c1ccccn1 | active: 35.1%
O=C1c2ccccc2C(=O)N1Cc1nc2ccccc2c(=O)n1-c1ccccn1 | active: 31.2%
Cc1ccccc1N1CCN(Cc2ccc3c(c2)OCO3)CC1 | active: 83%
CCOC(=O)C(NC(=O)CC)(Nc1ccc(C(O)(C(=O)OCC)C(F)(F)F)cc1C)C(F)(F)F (stereo not given) | active: 34.2%
Cc1ccc(NC(=O)CN2C(=O)CN=C(c3ccccc3)c3ccccc32)cc1Cl | 5.01%
